The list shows a part of the results. Binding of human transcription factors and regulators to the viral nucleoprotein by AlphaScreen, crude cell-free proteins, amounts not normalised, one pass. Fold of the Venus control; higher = more signal. No active / inactive call. Single-pass screen; sequences are the whole Swiss-Prot entries looked up by name.
B1: TWIST2, Q8WVJ9 (protein)
chain: MEEGSSSPVSPVDSLGTSEEELERQPKRFGRKRRYSKKSSEDGSPTPGKRGKKGSPSAQSFEELQSQRILANVRERQRTQSLNEAFAALRKIIPTLPSDKLSKIQTLKLAARYIDFLYQVLQSDEMDNKMTSCSYVAHERLSYAFSVWRMEGAWSMSASH
B2: MLX, Q9UH92 (protein)
chain: MTEPGASPEDPWVKASPVGAHAGEGRAGRARARRGAGRRGASLLSPKSPTLSVPRGCREDSSHPACAKVEYAYSDNSLDPGLFVESTRKGSVVSRANSIGSTSASSVPNTDDEDSDYHQEAYKESYKDRRRRAHTQAEQKRRDAIKRGYDDLQTIVPTCQQQDFSIGSQKLSKAIVLQKTIDYIQFLHKEKKKQEEEVSTLRKDVTALKIMKVNYEQIVKAHQDNPHEGEDQVSDQVKFNVFQGIMDSLFQSFNASISVASFQELSACVFSWIEEHCKPQTLREIVIGVLHQLKNQLY
B3: SPHK1, Q9NYA1 (protein)
chain: MDPAGGPRGVLPRPCRVLVLLNPRGGKGKALQLFRSHVQPLLAEAEISFTLMLTERRNHARELVRSEELGRWDALVVMSGDGLMHEVVNGLMERPDWETAIQKPLCSLPAGSGNALAASLNHYAGYEQVTNEDLLTNCTLLLCRRLLSPMNLLSLHTASGLRLFSVLSLAWGFIADVDLESEKYRRLGEMRFTLGTFLRLAALRTYRGRLAYLPVGRVGSKTPASPVVVQQGPVDAHLVPLEEPVPSHWTVVPDEDFVLVLALLHSHLGSEMFAAPMGRCAAGVMHLFYVRAGVSRAMLLRLFLAMEKGRHMEYECPYLVYVPVVAFRLEPKDGKGVFAVDGELMVSEAVQGQVHPNYFWMVSGCVEPPPSWKPQQMPPPEEPL
B4: ZNF146, Q15072 (protein)
chain: MSHLSQQRIYSGENPFACKVCGKVFSHKSNLTEHEHFHTREKPFECNECGKAFSQKQYVIKHQNTHTGEKLFECNECGKSFSQKENLLTHQKIHTGEKPFECKDCGKAFIQKSNLIRHQRTHTGEKPFVCKECGKTFSGKSNLTEHEKIHIGEKPFKCSECGTAFGQKKYLIKHQNIHTGEKPYECNECGKAFSQRTSLIVHVRIHSGDKPYECNVCGKAFSQSSSLTVHVRSHTGEKPYGCNECGKAFSQFSTLALHLRIHTGKKPYQCSECGKAFSQKSHHIRHQKIHTH
B5: HNF1A, P20823 (protein)
chain: MVSKLSQLQTELLAALLESGLSKEALIQALGEPGPYLLAGEGPLDKGESCGGGRGELAELPNGLGETRGSEDETDDDGEDFTPPILKELENLSPEEAAHQKAVVETLLQEDPWRVAKMVKSYLQQHNIPQREVVDTTGLNQSHLSQHLNKGTPMKTQKRAALYTWYVRKQREVAQQFTHAGQGGLIEEPTGDELPTKKGRRNRFKWGPASQQILFQAYERQKNPSKEERETLVEECNRAECIQRGVSPSQAQGLGSNLVTEVRVYNWFANRRKEEAFRHKLAMDTYSGPPPGPGPGPALPAHSSPGLPPPALSPSKVHGVRYGQPATSETAEVPSSSGGPLVTVSTPLHQVSPTGLEPSHSLLSTEAKLVSAAGGPLPPVSTLTALHSLEQTSPGLNQQPQNLIMASLPGVMTIGPGEPASLGPTFTNTGASTLVIGLASTQAQSVPVINSMGSSLTTLQPVQFSQPLHPSYQQPLMPPVQSHVTQSPFMATMAQLQSPHALYSHKPEVAQYTHTGLLPQTMLITDTTNLSALASLTPTKQVFTSDTEASSESGLHTPASQATTLHVPSQDPASIQHLQPAHRLSASPTVSSSSLVLYQSSDSSNGQSHLLPSNHSVIETFISTQMASSSQ
B6: SALL2, Q9Y467 (protein)
chain: MSRRKQRKPQQLISDCEGPSASENGDASEEDHPQVCAKCCAQFTDPTEFLAHQNACSTDPPVMVIIGGQENPNNSSASSEPRPEGHNNPQVMDTEHSNPPDSGSSVPTDPTWGPERRGEESSGHFLVAATGTAAGGGGGLILASPKLGATPLPPESTPAPPPPPPPPPPPGVGSGHLNIPLILEELRVLQQRQIHQMQMTEQICRQVLLLGSLGQTVGAPASPSELPGTGTASSTKPLLPLFSPIKPVQTSKTLASSSSSSSSSSGAETPKQAFFHLYHPLGSQHPFSAGGVGRSHKPTPAPSPALPGSTDQLIASPHLAFPSTTGLLAAQCLGAARGLEATASPGLLKPKNGSGELSYGEVMGPLEKPGGRHKCRFCAKVFGSDSALQIHLRSHTGERPYKCNVCGNRFTTRGNLKVHFHRHREKYPHVQMNPHPVPEHLDYVITSSGLPYGMSVPPEKAEEEAATPGGGVERKPLVASTTALSATESLTLLSTSAGTATAPGLPAFNKFVLMKAVEPKNKADENTPPGSEGSAISGVAESSTATRMQLSKLVTSLPSWALLTNHFKSTGSFPFPYVLEPLGASPSETSKLQQLVEKIDRQGAVAVTSAASGAPTTSAPAPSSSASSGPNQCVICLRVLSCPRALRLHYGQHGGERPFKCKVCGRAFSTRGNLRAHFVGHKASPAARAQNSCPICQKKFTNAVTLQQHVRMHLGGQIPNGGTALPEGGGAAQENGSEQSTVSGARSFPQQQSQQPSPEEELSEEEEEEDEEEEEDVTDEDSLAGRGSESGGEKAISVRGDSEEASGAEEEVGTVAAAATAGKEMDSNEKTTQQSSLPPPPPPDSLDQPQPMEQGSSGVLGGKEEGGKPERSSSPASALTPEGEATSVTLVEELSLQEAMRKEPGESSSRKACEVCGQAFPSQAALEEHQKTHPKEGPLFTCVFCRQGFLERATLKKHMLLAHHQVQPFAPHGPQNIAALSLVPGCSPSITSTGLSPFPRKDDPTIP
B7: ZNF528, Q3MIS6 (protein)
chain: MALTQGPLKFMDVAIEFSQEEWKCLDPAQRTLYRDVMLENYRNLVSLGICLPDLSVTSMLEQKRDPWTLQSEEKIANDPDGRECIKGVNTERSSKLGSNAGNKPCKNQLGFTFQLHLSDLQLFQAERKISGCKHFEKPVSDNSSVSPLEKISSSVKSHLLNKYRNNFDHAPLLPQEQKAHIREKAYKCNEHGQVFRASASLTNQVIHNADNPYKCSECGKVFSCSSKLVIHRRMHTGEKPYKCHECGKLFSSNSNLSQHQRIHTGEKPYKCHECDKVFRSSSKLAQHQRIHTGEKPYKCHECDKVFNQIAHLVRHQKIHTGEKPYSCNKCGKVFSRHSYLAEHQTVHTGEKPYKCEECGKAFSVRSSLITHQLIHTGRKPYKCKECDKVFGRKCFLTSHQRIHTRERPYGCSQCGKIFSQKSDLIRHRKTHTDEKPYKCNKCGTAFREFSDLTAHFLIHSGEKPYECKECGKVFRYKSSLTSHHRIHTGEKPYKCNRCGKVFSRSSNLVCHQKIHTGEKPYKCNQCGKVFNQASYLTRHQIIHTGERPYRCSKCGKAFRGCSGLTAHLAIHTEKKSHECKECGKIFTQKSSLTNHHRIHIGEKPYKCTLCSKVFSHNSDLAQHQRVHS
B8: RFXAP, O00287 (protein)
chain: MEAQGVAEGAGPGAASGVPHPAALAPAAAPTLAPASVAAAASQFTLLVMQPCAGQDEAAAPGGSVGAGKPVRYLCEGAGDGEEEAGEDEADLLDTSDPPGGGESAASLEDLEDEETHSGGEGSSGGARRRGSGGGSMSKTCTYEGCSETTSQVAKQRKPWMCKKHRNKMYKDKYKKKKSDQALNCGGTASTGSAGNVKLEESADNILSIVKQRTGSFGDRPARPTLLEQVLNQKRLSLLRSPEVVQFLQKQQQLLNQQVLEQRQQQFPGTSM
B9: DDN, O94850 (protein)
chain: MLDGPLFSEGPDSPRELQDEESGSCLWVQKSKLLVIEVKTISCHYSRRAPSRQPMDFQASHWARGFQNRTCGPRPGSPQPPPRRPWASRVLQEATNWRAGPLAEVRAREQEKRKAASQEREAKETERKRRKAGGARRSPPGRPRPEPRNAPRVAQLAGLPAPLRPERLAPVGRAPRPSAQPQSDPGSAWAGPWGGRRPGPPSYEAHLLLRGSAGTAPRRRWDRPPPYVAPPSYEGPHRTLGTKRGPGNSQVPTSSAPAATPARTDGGRTKKRLDPRIYRDVLGAWGLRQGQGLLGGSPGCGAARARPEPGKGVVEKSLGLAAADLNSGSDSHPQAKATGSAGTEIAPAGSATAAPCAPHPAPRSRHHLKGSREGKEGEQIWFPKCWIPSPKKQPPRHSQTLPRPWAPGGTGWRESLGLGEGAGPETLEGWKATRRAHTLPRSSQGLSRGEGVFVIDATCVVIRSQYVPTPRTQQVQLLPSGVTRVVGDSPSQSKPGKEEGEGATVFPSPCQKRLSSSRLLHQPGGGRGGEAEGGRPGDSTLEERTFRILGLPAPEVNLRDAPTQPGSPEHQALGPAASGAQGRAEGSEVAVVQRRAGRGWARTPGPYAGALREAVSRIRRHTAPDSDTDEAEELSVHSGSSDGSDTEAPGASWRNERTLPEVGNSSPEEDGKTAELSDSVGEILDVISQTEEVLFGVRDIRGTQQGNRKRQ
B10: GLI2, P10070 (protein)
chain: METSASATASEKQEAKSGILEAAGFPDPGKKASPLVVAAAAAAAVAAQGVPQHLLPPFHAPLPIDMRHQEGRYHYEPHSVHGVHGPPALSGSPVISDISLIRLSPHPAGPGESPFNAPHPYVNPHMEHYLRSVHSSPTLSMISAARGLSPADVAQEHLKERGLFGLPAPGTTPSDYYHQMTLVAGHPAPYGDLLMQSGGAASAPHLHDYLNPVDVSRFSSPRVTPRLSRKRALSISPLSDASLDLQRMIRTSPNSLVAYINNSRSSSAASGSYGHLSAGALSPAFTFPHPINPVAYQQILSQQRGLGSAFGHTPPLIQPSPTFLAQQPMALTSINATPTQLSSSSNCLSDTNQNKQSSESAVSSTVNPVAIHKRSKVKTEPEGLRPASPLALTQGQVSGHGSCGCALPLSQEQLADLKEDLDRDDCKQEAEVVIYETNCHWEDCTKEYDTQEQLVHHINNEHIHGEKKEFVCRWQACTREQKPFKAQYMLVVHMRRHTGEKPHKCTFEGCSKAYSRLENLKTHLRSHTGEKPYVCEHEGCNKAFSNASDRAKHQNRTHSNEKPYICKIPGCTKRYTDPSSLRKHVKTVHGPDAHVTKKQRNDVHLRTPLLKENGDSEAGTEPGGPESTEASSTSQAVEDCLHVRAIKTESSGLCQSSPGAQSSCSSEPSPLGSAPNNDSGVEMPGTGPGSLGDLTALDDTPPGADTSALAAPSAGGLQLRKHMTTMHRFEQLKKEKLKSLKDSCSWAGPTPHTRNTKLPPLPGSGSILENFSGSGGGGPAGLLPNPRLSELSASEVTMLSQLQERRDSSTSTVSSAYTVSRRSSGISPYFSSRRSSEASPLGAGRPHNASSADSYDPISTDASRRSSEASQCSGGSGLLNLTPAQQYSLRAKYAAATGGPPPTPLPGLERMSLRTRLALLDAPERTLPAGCPRPLGPRRGSDGPTYGHGHAGAAPAFPHEAPGGGARRASDPVRRPDALSLPRVQRFHSTHNVNPGPLPPCADRRGLRLQSHPSTDGGLARGAYSPRPPSISENVAMEAVAAGVDGAGPEADLGLPEDDLVLPDDVVQYIKAHASGALDEGTGQVYPTESTGFSDNPRLPSPGLHGQRRMVAADSNVGPSAPMLGGCQLGFGAPSSLNKNNMPVQWNEVSSGTVDALASQVKPPPFPQGNLAVVQQKPAFGQYPGYSPQGLQASPGGLDSTQPHLQPRSGAPSQGIPRVNYMQQLRQPVAGSQCPGMTTTMSPHACYGQVHPQLSPSTISGALNQFPQSCSNMPAKPGHLGHPQQTEVAPDPTTMGNRHRELGVPDSALAGVPPPHPVQSYPQQSHHLAASMSQEGYHQVPSLLPARQPGFMEPQTGPMGVATAGFGLVQPRPPLEPSPTGRHRGVRAVQQQLAYARATGHAMAAMPSSQETAEAVPKGAMGNMGSVPPQPPPQDAGGAPDHSMLYYYGQIHMYEQDGGLENLGSCQVMRSQPPQPQACQDSIQPQPLPSPGVNQVSSTVDSQLLEAPQIDFDAIMDDGDHSSLFSGALSPSLLHSLSQNSSRLTTPRNSLTLPSIPAGISNMAVGDMSSMLTSLAEESKFLNMMT

These binders were tested against nucleoprotein N of Crimean-Congo hemorrhagic fever virus (assay: AlphaScreen luminescence signal relative to Venus negative control (fold); higher = stronger binding to CCHFV N).
Experimental: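 AlphaScreen binding of cell-free made, FLAG-GST-tagged human transcription factors and regulators (crude translation products) to biotinylated N protein; signal as fold of the FLAG-GST-Venus control. One pass.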
In the case of B1, the AlphaScreen luminescence signal is reported as 1.91.
B2 showed an AlphaScreen luminescence signal of 1.44.
For B3, the AlphaScreen luminescence signal was 2.79.
For B4, the AlphaScreen luminescence signal was 1.72.
In the case of B5, the AlphaScreen luminescence signal is reported as 3.02.
B6 was tested, and the AlphaScreen luminescence signal was 1.12.
In the case of B7, the AlphaScreen luminescence signal is reported as 3.02.
B8 gave an AlphaScreen luminescence signal of 18.3.
Binder B9 has an AlphaScreen luminescence signal of 2.37.
Work on B10 yielded an AlphaScreen luminescence signal of 3.44.

Source: the supplement of paper PMC12423691
